Reference: publication PMC7996970 (The Biochemical journal, 2020)

Molecular target: the molecule itself
Assay: SEC

B1: D273L IDH1 (enzyme)
chain: not shown
stoichiometry N: 2
